# The campaign covered roughly 420,000 compounds. About 64,000 (15%) were called active. The inconclusive results got no clear call from the source; some entries with a clear call stand among them for comparison. Calls follow the shape of the dose curve; as a rule, active = well fitted inhibition curve with a large enough effect; inconclusive = small, poorly fitted or top-dose-only effect; inactive = flat fitted curve, though single readings scatter. No potency is given beside an inconclusive call; the fits are too rough.
# Experiment: qHTS for Inhibitors of human tyrosyl-DNA phosphodiesterase 1 (TDP1): qHTS in cells in absence of CPT; also: nearly all actives have a fitted effect of over 55% in size
# Conditions: DT40 Tdp1-/- hTDP1 cells, no CPT, ATP luminescence, 48 h; series mostly up to 46.2 µM
# Summary of the method: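 Chicken DT40 Tdp1-/- cells stably complemented with human TDP1 were seeded at 400 cells/well with DMSO in place of 20 nM camptothecin. After compound pinning, cells grew at least 48 hr at 37 °C; viability read by CellTiter-Glo luminescence.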
# Potency is read from the fitted curve at half-maximal effect; tags tell the direction and shape of the fitted curve.
row,Structure (SMILES),Potency
1,O=C(COc1cccc(C(F)(F)F)c1)N1CCN(c2ccc(O)cc2)CC1,"inconclusive [inhibitor, single point]"
2,O=C(OCCOc1ccccc1F)c1cccc(S(=O)(=O)N2CCOCC2)c1,inactive
3,OCC(O)C(O)C(O)C(O)C1NCCS1 (stereo not drawn),inactive
4,Cc1ccc(NC(=O)Cn2c(=O)ccc3cc(S(=O)(=O)N4CCC(C)CC4)ccc32)cc1Cl,active: 6.51 µM
5,O=C(Nc1cccc(S(=O)(=O)N2CCOCC2)c1)c1c2c(nc3ccccc13)CCC2,inactive
6,c1ccc(COc2ccc(OCCN3CCCCC3)cc2)cc1,inactive
7,CCOc1ccccc1C(=O)NN1C(=O)CCC1=O,active: 18.4 µM
8,O=C(c1cccc(F)c1)N1CCC2(CC1)CN(C(c1ccccc1)c1ccccc1)C2,"inconclusive [inhibitor, single point]"
9,COc1cccc(NC(=S)N/N=C2/CCCCc3ccccc32)c1,"inconclusive [inhibitor, single point]"
10,Cc1ccccc1CS(=O)(=O)Cc1ccc(C(=O)NCc2ccc(F)cc2)o1,active: 16.4 µM
11,O=C(NCc1cccnc1)c1cccc(S(=O)(=O)Nc2ccc(F)cc2)c1,"inconclusive [inhibitor, single point]"
12,COc1ccc(C(=O)Nc2ccnn2C2CCN(C(=O)C3CCOC3)CC2)cc1 (stereo not drawn),inactive
13,CSc1ncccc1C(=O)OCn1nnc2ccccc2c1=O,inactive
14,COc1ccc(S(=O)(=O)NCCCn2ccnc2)cc1C(C)(C)C,inactive
15,Cn1nnc(NC(=O)c2ccccc2F)n1,inactive
16,COc1ccc(Cn2c(SC)nc3ccccc32)cc1[N+](=O)[O-],inactive
17,Cc1ccc(NC(=O)C(NS(=O)(=O)c2cccc3nsnc23)C(C)C)nc1 (stereo not drawn),inactive
18,O=S(=O)(N/N=C\c1cccn1-c1ccccc1)c1ccc2ccccc2c1,inactive
19,CCN(CC(=O)Nc1c(F)cccc1F)C(=O)C1CCN(S(=O)(=O)c2ccc(C)c(C)c2)CC1,"inconclusive [inhibitor, partial curve]"
20,COc1ccccc1C(=O)Nc1ccccc1C(=O)Nc1ccccc1,"inconclusive [inhibitor, single point]"
21,CN(Cc1ccccc1)C(=O)c1ccc2nc([C@@H]3O[C@H](CO)[C@H](O)[C@H](O)[C@H]3O)[nH]c2c1,inactive
22,CCN(CC)S(=O)(=O)c1cccc(-c2cn3cc(C)ccc3n2)c1,active: 18.4 µM
23,Cc1cc(/C=N/NS(=O)(=O)c2ccc(F)c(Cl)c2)no1,"inconclusive [inhibitor, single point]"

# Source: PubChem BioAssay AID686978 (National Center for Advancing Translational Sciences (NCATS), 2013)
